The labels stand for the following.
T1: UNK ZnF1-3 (human, UniProt Q9C0B0 31-174)
T1 sequence: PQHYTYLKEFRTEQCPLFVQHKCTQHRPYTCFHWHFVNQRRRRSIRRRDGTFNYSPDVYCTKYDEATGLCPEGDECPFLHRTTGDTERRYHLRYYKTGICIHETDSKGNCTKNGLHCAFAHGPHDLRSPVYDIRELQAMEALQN

B1: chr19:33076771:33076772:+_ENSG00000105185_ENST00000590247|hu_hu|FALSE|FALSE (ssRNA)
RNA: GGGAGUUCUACAGUCCGACGAUCUGCCAUCUGUAUAAGGUAAUUCUCUACUGCUUUAGUUUUUUCAGGCUUUACAAGUGCUAAGUUACUUAACCUGGCCCGGGCCGACUGAUCCAGAACUUGGGCUAAGAUACUGUUUCUCAUCAACAGAGGAUUGAGCAUCA
B2: chr10:33190432:33190433:-_ENSG00000150093_ENST00000302278|hu_mus|hu_hu_hu_mus_True|68_88 (ssRNA)
RNA: GGGAGUUCUACAGUCCGACGAUCUACAUUUUCCAAACCUGCAUGUGAGUAAAACCAUGGCCACAGAGCCCUAAAGCUACCCUACUGUGACUAAGAUGCUGCUGCUGUGAGCUUGGUGUUGCAAAAUCCGCCUGAGUAGGAUUCCAACAGAGGAUUGAGCAUCA
B3: chr16:94690093:94690094:+_ENSMUSG00000040785_ENSMUST00000117648|mus_hu|mus_mus_mus_hu_True|58_98 (ssRNA)
RNA: GGGAGUUCUACAGUCCGACGAUCGGGCUGGGAUGACAGCAGACAGCCCUCGAUUCCAGGGGGAAAAAGUCUUAGUCAAUACUAAUUAAAAAGUGUUAAUGAUUUUUGAAAAUCAGAUUACAUCUAUAAAAGAUGAAAAGCAAACAACAGAGGAUUGAGCAUCA
B4: chr5:152452566:152452567:-_ENSMUSG00000033970_ENSMUST00000038131|mus_hu|motif|central (ssRNA)
RNA: GGGAGUUCUACAGUCCGACGAUCUUCACGUAGAAUACACAUAAUUCUUGUCUUUUUUCCAGCACCUGAUGGUCCGUACACGGACAGAUGAGGAAAGUCACCACACUGCACCAGGUUCCGCAGCUGGGCCGCCUGCUCCUUGUGCAACAGAGGAUUGAGCAUCA
B5: chr1:39494447:39494448:+_ENSG00000168653_ENST00000372967|hu_mus|hu_hu_hu_mus_False|1_78 (ssRNA)
RNA: GGGAGUUCUACAGUCCGACGAUCGCACCGAGCGGCGUUCUUAUAGGGCUGUUCUGCACUCUGGAUUAUAAAGUGCCGGUCCAGGCUGAUGCCCAGCUUUUUCUGUAUGUCAAGGAAAGGCAUGGCUCUGCAGUGCCCCCUUGACAACAGAGGAUUGAGCAUCA
B6: chr16:22092171:22092172:+_ENSG00000185716_ENST00000542527|hu_mus|FALSE|FALSE (ssRNA)
RNA: GGGAGUUCUACAGUCCGACGAUCCCGUUUAGACAUUCGUCAGCCUGGUAAACAGACUUUGCCAGCAAACAGAAGUCCUACUAUUGUGAAGAAAAUCGAUAAGACAAAAAGUACAUAUGAUGACCCAACUACUGUGUUGUUGGGCAACAGAGGAUUGAGCAUCA
B7: chr8:117878989:117878990:-_ENSG00000164754_ENST00000297338|hu_hu|hu_hu_hu_mus_True|8_38 (ssRNA)
RNA: GGGAGUUCUACAGUCCGACGAUCCCAGAGGCCCUCGUUUACUGAGGACAAAAUGUGCGUAGAACAUUUUUCUUAUUUGCUAUGAAAUAAGAAGAAAACCUUGCUCUGGCGGGGAGCCGGGAGGGGUUGGGUGGCCCGGGAGGGCAACAGAGGAUUGAGCAUCA
B8: 34873808_34873928_1232_3pUTR_ENSMUSG00000037503_ENSMUST00000047534|mouse|control|control (ssRNA)
RNA: GGGAGUUCUACAGUCCGACGAUCUCCCUUGUACAAGUGUAACUGAGGCUCAGCGUACAUCGCAGAGGUGCGUGAGGGACAGGACAGGCUGUGAACGUGGUCCAGUCCUUCGGGUUUUGCAUAUGAUGGUUUUGCAUCAGUCACCAACAGAGGAUUGAGCAUCA
B9: chr7:7679991:7679992:-_ENSG00000106399_ENST00000396682|hu_hu|hu_hu_hu_mus_False|38_58 (ssRNA)
RNA: GGGAGUUCUACAGUCCGACGAUCUGGGAUGAAUCUUUUCCAGCUUCCCCACGAAGCACACGGGCCGGUCGAUAUACUGAGCUAGCAUGCUGGCGUUGAUGCGCGACUUGGGGAGCUGCAUUAUGUCCUCCAUGAUUCUGCCGCCAACAGAGGAUUGAGCAUCA
B10: chr7:133502204:133502205:+_ENSG00000131558_ENST00000253861|hu_mus|FALSE|FALSE (ssRNA)
RNA: GGGAGUUCUACAGUCCGACGAUCGGUGUCUGCAUUAGCCAGGAUCUUCAAGGGGUCUGAGGUUUUGGUGACGCCUUCAAUCUCCUUGUUGAUCUCAGCCAAGACCUGAUUAAGGAAGAUGCUCUUGAUAUACACGGUAAGAAACAACAGAGGAUUGAGCAUCA
B11: chr2:217001844:217001845:+_ENSG00000079246_ENST00000392132|hu_hu|hu_hu_hu_mus_False|58_58 (ssRNA)
RNA: GGGAGUUCUACAGUCCGACGAUCACCAACUUGAGGAUUAGAUCUUUUGUCAUAAGCAUAUCGGACGAUGGCGACCAUGUCUAAGUCAUCCAAAGCAUGAACGAGAGAGGAAAGGGCAACAGCUGCCGCCUCAUCAUCCUUUGCCAACAGAGGAUUGAGCAUCA
B12: chr13:22070289:22070290:-_ENSG00000165487_ENST00000382374|hu_mus|FALSE|FALSE (ssRNA)
RNA: GGGAGUUCUACAGUCCGACGAUCAGCAAAGUCUUCCAAAUGCGUUGUAAAAUGGCAAAAGGACUUGAACUCAUCCAAACUAAUGCUCUCUCCUACUGACAACUUUUCUCUCACGUUUCUCCAGUAAAUAUCUUUAUUUUCAGUCAACAGAGGAUUGAGCAUCA
B13: chr10:33190432:33190433:-_ENSG00000150093_ENST00000302278|hu_mus|hu_hu_hu_mus_True|38_98 (ssRNA)
RNA: GGGAGUUCUACAGUCCGACGAUCUACAUUUUCCAAACCUGCACAUGAAUAAAACCCUGGCCACAGAGCCCCAAAACUACCCUACUGUGACUAAGAUAAUUGCUACUUGAGCUUGGUGUUGCAAAAUCCGCCUGAGUAGGAUUCCAACAGAGGAUUGAGCAUCA
B14: chr2:42509997:42509998:+_ENSG00000143924_ENST00000318522|hu_mus|hu_hu_hu_mus_True|48_78 (ssRNA)
RNA: GGGAGUUCUACAGUCCGACGAUCUCGCUGAGUCCUCUCCUCAUAAUUAAACAGGACUACUACUGAUGCGAUAAAAUAAACUAUCUCCCCGGUCGGAAGCAGGUAUACAUUCGCUCUACAGUCCUUUCCUCGAUAACCGUAUACCAACAGAGGAUUGAGCAUCA

This is one part of the list.

The target in this test is T1, UNK ZnF1-3. Nature of the test: nsRBNS (natural sequence RNA bind-n-seq); RBNS binding buffer (assumed for nsRBNS): 25 mM Tris pH 7.5, 150 mM KCl, 3 mM MgCl2, 0.01% Triton X-100, 500 ug/ml BSA, 20 U/ml SUPERase-In, 4 C; UNK is unkempt and MSI1 is Musashi-1; names of the RNAs are library labels; protein concentration not given here; high values mean tight binding.
In turn, B1 returned a binding signal of 0.932 enrichment R.
Take B2: the binding signal was found to be 0.878 enrichment R.
For B3 the value was 1.46 enrichment R.
For B4 the value was 0.708 enrichment R; for B5, 0.745 enrichment R; for B6, 0.721 enrichment R.
On to B7, for which the binding signal turned out to be 1.24 enrichment R.
In the case of B8 it was 0.766 enrichment R; in that of B9, 0.572 enrichment R; in that of B10, 0.626 enrichment R.
In the case of B11 it was 2.11 enrichment R.
B12 displayed a binding signal of 1.49 enrichment R.
For B13 the value was 0.98 enrichment R; for B14, 1.19 enrichment R.
